These results are taken from the RNAGym collection of RNA variant scans (doi:10.7554/elife.90254).

Read counts are not given, so values of variants with three or more changes are uncertain.

B1: OR4K15 (parent)
chain: GUUAACGGUCAUAGGCCAUGGAAACUAGGAGCACCAUUUCGCUGCCAGUGAAGAAAUGAACAAAGAAAAUCUGGGCCAGGCAGGCAUCAAAAGAAAUAGUCUUGCGCUCAACCAGAAAGUCUGUAAUCAUUUUAAGGGUA

Variants of B1 are the subject of the data set. The data set is described as follows: self-cleavage, relative activity (ratio to wild type); higher = more cleavage; in vitro, sequencing; the parent is a self-cleaving ribozyme.
For C45U A47G A96G, the self-cleavage is 1.57.

With G44C A110C A116G, the self-cleavage stood at 0.18. Under C45U A51G U127G stands 0.43. For the variant G44A A67G A69G G93A, the self-cleavage was 0.66. For the variant U43A U57A A67C, the self-cleavage was 1.37. Next, A47G A66G U87C A92G: 1.28.

Regarding U43C A69C A98G, the self-cleavage turned out to be 0.33. As to C40U A67G A68G A69G G80C U131C A134G, the self-cleavage is 0.03. Take U43C A92G U120C: the self-cleavage is 0.68.

For the variant U43A A55U A82G A86U A94G A96U U102C U120C U132C, the self-cleavage turned out to be 0.65. As for U39C U43A A98G, the self-cleavage was found to be 1.67. Turning to A47G A52G U72C A116G, the self-cleavage was 0.08. In the case of U43C A90U A117G, the self-cleavage is 2.08. As for C40U A52G U100C A114U, the self-cleavage is 0.1.

As for G44U A56G A63G U120C, the self-cleavage was found to be 0.43.

Consider U43C A95G U131C, for which the self-cleavage is 2.55. On to C40U A62U U130C, for which the self-cleavage is 1.41. Take U43C G65U A78G: the self-cleavage came to 0.31. For U39G A59G A89G, the self-cleavage worked out at 1.52.

In the case of U43C A51U A60G A82G A110G, the self-cleavage is 0.05. On to U39C U49C A51G, for which the self-cleavage worked out at 0.9. Next, G41A A54G U133C: 2.29; G41A C81U A89U: 0.61; C45U U49C U72C A82U A90G: 0.14. Consider A47G A55G U87C A114G, for which the self-cleavage came to 0.14. Next, U43C G84A A125G: 1.26; U43C G53U A55G: 0.87; G41A A62U A90G U120C A126G: 0.23. Under U43C A66G U87C U120C stands 1.97. With U39C U43A A66G A89G, the self-cleavage came out at 1.2. On to A47G A54G U72C, for which the self-cleavage was determined as 0.22. Next, U43C A67G A110G: 0.18; C40U A55G A64U U130C: 0.54; A47C U103A A126G U130C: 0.04. On to U39G A56G U57G A60G, for which the self-cleavage came to 0.76. As for A47G A69G U100C U122C, the self-cleavage was 2.06. Turning to U43A A69G A89G, the self-cleavage worked out at 1.73. In the case of U43A G44A A55G A56U U103C, the self-cleavage stood at 0.68. Next, U43A A59G A69G C81U A129G U130G U139C: 0.02; U39C U122C A135G: 1.84; C45U U72A A95G: 0.16. Under C40U A67G A118G stands 1.54; under U43C G44U A54U A63G U132C, 1.77. Take C46U A64G A116G U122C: the self-cleavage was 0.78. Under C46U A60U A111U stands 0.13; under U43C A60G A68U C77U A125G U133A, 1.14. For the variant U43C G73A A116U, the self-cleavage was found to be 0.02. G44A A78U U87A U120C: the self-cleavage came to 0.06. As to A47G A67G A68G U122C, the self-cleavage is 0.14.

Regarding U43G A52C A135G, the self-cleavage stood at 1.92. Next, C46U A62U A86G: 1.23. Next, G44U A91G A95G A134U: 0.13. Consider A47G A54G U122A A126U, for which the self-cleavage came out at 0.45. Take U43G A54U A67G: the self-cleavage was 2.65.

In the case of G44A U49A A118U, the self-cleavage was determined as 0.64.

A47C A59G U131C: the self-cleavage stood at 1.35. Consider U43A U49G A66G, for which the self-cleavage was 1.25. Take U43C G44A A91G: the self-cleavage is 1.24. On to U39G A90U A118G, for which the self-cleavage came out at 0.85. On to U43C U130C U132C, for which the self-cleavage came to 1.13.

In the case of U43A A52G U130C, the self-cleavage is 0.87. Turning to U43C G53U A86G A114G, the self-cleavage came to 0.35. Regarding U43C U87C U108A, the self-cleavage was determined as 0.01. Take U43C A125G A126G: the self-cleavage was 0.08.

For the variant U39C U43A A95G U133C, the self-cleavage was 0.88. With U39C U127C A140U, the self-cleavage was determined as 0.92. With U43A G80A A129G, the self-cleavage was determined as 0.17. With G41A A95G G99U U127C A129G, the self-cleavage worked out at 0.03. Consider U43A A78G A98G C105U U108C, for which the self-cleavage came out at 0.01. As for G44C U49C A78G, the self-cleavage turned out to be 0.17. Under C46U A51U A62G A117U stands 1.56. Turning to C45U A96C U103G A129U, the self-cleavage turned out to be 0. Under G44A A52U A62U A116G U131C stands 1.16.

For U43C A47G A67G, the self-cleavage was found to be 1.34. With U43C U72C A98G, the self-cleavage was found to be 0.1. For A47G A98U A126G, the self-cleavage worked out at 0.43.

U39C U108A A140G: the self-cleavage worked out at 0.01.

U39C U103C A118G: the self-cleavage turned out to be 0.85. A47G A95G U103C C105U U108G: the self-cleavage is 0.

In the case of U43A A55G U70C A86U, the self-cleavage stood at 1.16.

On to U43A C105A A111G A114G, for which the self-cleavage amounted to 0.02. Take C40U A69G A92G: the self-cleavage stood at 1.04. Take U43G A56G A68U: the self-cleavage came to 1.7. As to C40U A54G A64G A95G, the self-cleavage came to 2.91. Under C40U A68G A82G U108C stands 0.02; under C42A U103C U132C, 1.07. As to U43C A96U U97C, the self-cleavage came out at 1.42. In the case of C45U A56G U124C, the self-cleavage was determined as 1.44. As to A47G A62G A92G U97A, the self-cleavage amounted to 1.09. Take C42U A78G A95G A129G: the self-cleavage was determined as 0.51. Next, U43C U87G U132C: 0.46. For the variant U43C A60G U102C A111G A116G U131C, the self-cleavage is 0. A47G A78G A95G A96G: the self-cleavage was found to be 0.24. In the case of G41C A68G U131A, the self-cleavage is 1.36. Consider C42A A55G U87C A95G, for which the self-cleavage was 1.27. For the variant G41A A68G A95U U97C U122C, the self-cleavage amounted to 0.69. Under C40A A60G U70C stands 1.46.

Consider U43C A64G U120A, for which the self-cleavage is 2.12. For C42U A54U A59G, the self-cleavage was found to be 0.98. For the variant U43C C45U G50A A69G U87A A129U, the self-cleavage was 0.56. For G44A A89U A114U, the self-cleavage was found to be 0.09.

Turning to C40U U43C A51G A54U U100A U127C, the self-cleavage was found to be 0.4. Consider U39C U127C G137A, for which the self-cleavage was determined as 1.5. For the variant G44A A51G A66G, the self-cleavage worked out at 0.89. Consider C40U A64G A67G A91G U108C, for which the self-cleavage is 0.03. For A47G A95G A110G, the self-cleavage amounted to 0.13. Under U43C U103C G106A stands 0.01. In the case of U43A U49C A56G U97A U108C, the self-cleavage is 0.

For the variant U39C U49C A56C A59G A66G A91G, the self-cleavage was determined as 0.81.

Regarding G41A C88U U108C, the self-cleavage came out at 0. As to U43G A52G A86G U100A, the self-cleavage turned out to be 0.71. Regarding G41U A60U U72G A90U U131C, the self-cleavage was 0.14. Turning to U43A U49A A60G U72A G123U, the self-cleavage came out at 0.39. Take G44A A62G A78G: the self-cleavage is 0.25. U43C A64G U97G: the self-cleavage worked out at 2.03. Turning to U43C A96U A129U, the self-cleavage turned out to be 1.25. For the variant C40U A66G A94G, the self-cleavage was 1.45. Turning to U39C U127C U132C, the self-cleavage came to 0.93. Take U43C A89G U102A A110C: the self-cleavage worked out at 0.05. As for G41A A91G U102G U133C, the self-cleavage was 1.19. For U43A A78U U102C G136A A140G, the self-cleavage came to 1.41.

In the case of G41A U72C A86G U108C, the self-cleavage is 0.01.

Consider C40U U57C A118G A125G U132C, for which the self-cleavage turned out to be 0.09. Under U43A A64G A67G U102C U139A stands 2.36; under U39C U57A A92U, 1; under U43A A52G A89G C112A A118G, 0.04. Take U43A A51G U130C: the self-cleavage is 1.31.

As to U43C A47G A89G, the self-cleavage is 0.95.

C40A U43A U49C A55G A86U: the self-cleavage is 1.47. Turning to U43A A51G A110U C121U A125G, the self-cleavage was 1.31. Take G44U U122C U132C: the self-cleavage came out at 0.82. In the case of G44C A60G A66G A78U U131C, the self-cleavage was found to be 0.08.

As for G41A U127C A129G, the self-cleavage was 0.44. With A47G A96G A116G, the self-cleavage came out at 0.59. Under C40U A59U A63U U72A G79A stands 0.17; under U43G U108C A125G, 0.02.

Consider U43C A90U A111G, for which the self-cleavage was determined as 0.02. On to C42A U49C A89G, for which the self-cleavage was found to be 0.28. Consider U39C U49G A68G, for which the self-cleavage worked out at 1.48. Next, U43A U97C U133C: 2.58; A47G A59G A126G: 0.66; A47C U70C A86G: 1.03.

U43A A52U U100C A111G C113U: the self-cleavage amounted to 0.02. On to A47G A55C A69U C77U A78G A82G U108C A116G U132A, for which the self-cleavage is 0.01.

With A47G A64U A96U A116U, the self-cleavage came out at 0.02. Turning to A47G A66G U120C C128U, the self-cleavage turned out to be 1.05. On to U43C C61U U127A, for which the self-cleavage worked out at 1.81. Under C40U A62C A68G G73A U122C stands 0.13. With U43C A51G A59G A118G, the self-cleavage is 1.05. As for U43C A67G A86G A90G, the self-cleavage came to 0.95. Consider C42U A55G U100C A129U, for which the self-cleavage is 1.65. Under C45A A52U A56G U130A stands 0.75. Take U39C U49C A90G A114U: the self-cleavage amounted to 0.03.

Turning to A47G A60U C105U, the self-cleavage is 0.22. Regarding U43A U57C A82U U108C, the self-cleavage was found to be 0.05.

With U39C U43C A126U, the self-cleavage came to 1.59. For U43A A91G A114G, the self-cleavage amounted to 0.4. As for A47G A56G A95G, the self-cleavage was 2.02. As to C45U A47C A89U, the self-cleavage came to 2.06. For the variant U39C U72A U120A, the self-cleavage worked out at 0.11. For the variant U43C A60G U70C, the self-cleavage amounted to 0.49. Turning to U43C A110G A125U, the self-cleavage was determined as 0.14. On to U43C A59G A60G U102C, for which the self-cleavage worked out at 1.76. In the case of C46U A98G A114G, the self-cleavage was found to be 0.11. As for U43A A91C A117G, the self-cleavage amounted to 1.84. In the case of U43A A66C C71A, the self-cleavage was 0.2. Under U43A A55G A95G U108A A118G U130C U132C stands 0.01.
